From PubChem BioAssay (NCI)
Several values for one entry are separate records, joined by “and”; a condition that tells them apart may be missing. Identical values can stand only once.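 Each compound was tested at five concentrations against cells in 96-well plates for 48 hours. At the GI50, growth is halved. Definition used: TGI = concentration required for complete inhibition of growth.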 Peptide text beside a SMILES is read from it.

Test system: NCI-H322M lung
Assay: NCI anticancer screen, dose series, 48 h

SMILES	TGI	GI50
CCCOP1(=O)C=C(O)C(Cl)=C(C)C1 (stereo not drawn)	> 100 µM	–
CCOC(=O)C1(Cc2ccc3c(c2)CCC3)Cc2cc3c(cc2C1=O)CCC3 (stereo not drawn)	> 100 µM	–
CCOC(=O)c1csc(CCCCCCc2nc(C(=O)OCC)cs2)n1	> 100 µM	–
COc1ccc(C(c2ccc(C(C)C)cc(OC)c2=O)c2ccc(C(C)C)cc(OC)c2=O)cc1	27.2 µM	–
Cc1cccc(C(C)(C)C)c1NC(=O)CCl	> 100 µM	–
COC1=CC(=O)c2c(ccc3ncnc(N)c23)C1=O	6.57 µM	–
O=c1[nH][nH]c(=O)n1Cc1cccc(Cn2c(=O)[nH][nH]c2=O)c1	> 100 µM	–
O=C1C=CC(=O)c2c(O)ccc(O)c21	16.3 µM	–
Cc1ccc(/C(=N/NS(=O)(=O)c2ccc([N+](=O)[O-])cc2)Sc2cc(Cl)c(C)cc2S(N)(=O)=O)cc1	> 100 µM	18.9 µM
Nc1c(Br)cc2c(c1Br)Cc1cc(Br)ccc1-2	> 100 µM	–
N#C/C(C(=O)Nc1ccccc1)=C(/N)N1CCCC1	> 100 µM	–
CCC1=C(C)C(=O)N/C1=C\c1[nH]c(C)c([C@H](C)CCN)c1C	27.9 µM	–
CCNCCCCNCCCCNCCCCNCCCCNCC	> 100 µM	–
CCOC(=O)NC(Nc1ccc(OC(F)(F)F)cc1)(C(F)(F)F)C(F)(F)F	> 100 µM	–
COc1cc(/C=C/C(=O)c2ccc(Nc3nc(Nc4ccc(F)cc4)nc(Nc4ccc(Cl)cc4)n3)cc2)cc(OC)c1OC	> 100 µM	39.7 µM
CCNCCCn1c2c(c3ccc(F)cc3c1=O)C(=O)c1cc(OC)cnc1-2	4.81 µM	0.436 µM
NCCc1c[nH]c2ccc(OC(=O)C(=O)O)cc12	> 100 µM	–
CC(C)=CCCC(C)[C@H]1CC(O)C2(C)C3=CCC4C(C)(C)[C@@H](O)CC[C@]4(C)C3=CC[C@]12C (stereo partly drawn)	83.5 µM	–
c1ccc2c(c1)c1ccccc1c1n[se]nc21	> 100 µM	–
Cc1ccc(NC(=O)/C(CC2N=c3c(ccc4c(O)c5ccccc5c(O)c34)=NC2O)=N/NC(C)(C)C)cc1 (stereo not drawn)	28.1 µM	–
O=Cc1c(O)ccc2ccc(O)c(-c3c(O)ccc4ccc(O)cc34)c12	> 100 µM	–
Cn1c2c([N+](=O)[O-])cccc2c(=O)c2c(O)cc3c(c21)C=CC(C)(C)O3	> 100 µM	–
Nc1n[n+](=O)c2ccccc2n1O	> 100 µM	–
NS(=O)(=O)c1ccc(N=Cc2c(O)[nH]c3ccc4ncsc4c23)cc1	> 19.4 µM	1.07 µM and 2.68 µM

SMILES	TGI	GI50
Cc1cc(-n2c(/C=C/c3ccc(Cl)cc3)nc3cc(Cl)ccc3c2=O)on1	24.9 µM	–
O=C1c2ccccc2-c2ccccc2C(=O)C1(Br)Br	31.7 µM	–
CC1(F)C=CC(=O)C=C1	> 100 µM	–
O=C1NC2c3c(I)sc(I)c3/C(=N\O)C2O1 (stereo not drawn)	> 100 µM	–
O=C(CCC(C(=O)OCc1ccccc1)C(=O)OCc1ccccc1)Nc1ccc(OCc2ccccc2)cc1	> 100 µM	–
C1=C/COCc2cc(ccc2OCCN2CCCC2)Nc2nccc(n2)-c2cccc(c2)COC/1	4.95 µM and 5.61 µM	0.578 µM and 0.957 µM
CC1OC(OC2C(O)C(OCCc3ccc(O)c(O)c3)OC(CO)C2OC(=O)/C=C/c2ccc(O)c(O)c2)C(O)C(O)C1OC1OCC(O)(CO)C1O (stereo not drawn)	> 100 µM	> 100 µM
O=c1c2c([nH]c3ccccc13)CCCC2	> 100 µM	> 100 µM
NC(=S)N/N=C/c1c[nH]c2ccccc12	> 100 µM	–
CC1=C(C(=O)OCc2ccncc2)C(C2=C(C)SCCS2)C(C(=O)OCc2ccncc2)=C(C)N1	> 100 µM	–
CC(C)=CC(=O)c1[nH]c2ccccc2c1CC(=O)NCCc1cn(C(c2ccccc2)(c2ccccc2)c2ccccc2)cn1	> 100 µM	–
Oc1c(CN2CCOCC2)ccc(CN2CCOCC2)c1O	> 100 µM	–
CCN(CC)CCCC(CO)Nc1ccnc2cc(Cl)ccc12 (stereo not drawn)	> 100 µM	43.9 µM and 65.4 µM
COc1ccc(C23OCC(Cc4cc(OC)c(OC)cc42)C3COC(C)=O)cc1OC (stereo not drawn)	> 100 µM	–
CC1(C)CCC2(CC1)N[C@@H](C(=O)N[C@@H]1CC[C@@H](C(N)=O)OC1)[C@H](c1ccnc(Cl)c1F)[C@]21C(=O)Nc2cc(Cl)ccc21	16 µM	3.79 µM
O=C1C=CC(=O)c2c(O)c(N3CCN(c4ccccn4)CC3)c(Cl)c(O)c21	6.23 µM	–
NCCCCCCn1c(-c2ccc(Br)cc2)csc1=Nc1ccccc1	25.7 µM	–
COc1ccc(Nc2nn3c(=O)c4c(C)c(C)sc4nc3s2)cc1	> 100 µM	–
C=C1C(=O)O[C@@H]2O[C@@]3(C)CC[C@H]4[C@H](C)CC[C@@H]1[C@@]24O3	> 100 µM	–
O=C(ON=c1c2ccccc2ccc2ccccc12)c1ccccc1	76.9 µM	–
COC(=O)C1(NC(=O)C(CC(=O)OCc2ccccc2)NC(=O)OCc2ccccc2)CCCCCCC1 (stereo not drawn)	> 100 µM	–
COc1ccc2c(c1)C1C(CO2)C(c2ccccc2)=NN1c1ccccc1 (stereo not drawn)	> 100 µM	–
COc1ccc(-c2csc(-n3c(-c4ccccc4)nc4c(Br)cc(Br)cc4c3=O)n2)cc1	> 100 µM	–
N#Cc1c(-c2ccc(Cl)cc2)csc1NC(=O)Nc1ccc(Cl)c(C(F)(F)F)c1	33.5 µM	1.12 µM

SMILES	TGI	GI50
COc1cc(C(=O)c2c(-c3ccccc3)oc3c(OC)cccc23)cc(OC)c1O	> 100 µM	0.696 µM
O=C1c2ccccc2C(=O)N1C/C=N/NS(=O)(=O)c1ccc(F)cc1	> 100 µM	–
CCOC(=O)c1c(NC(=O)COc2cccc3cccnc23)sc(C(=O)N(C)C)c1C	> 100 µM	26.8 µM
O=C1c2ccccc2C(=O)c2c1c(=O)c(=O)c1ccccc1c(=O)n2Cc1ccccc1	> 100 µM	67.7 µM
c1ccc(NNC2=NCCN2)cc1	> 100 µM	–
CCOC(=O)/C=C/C1=C(c2ccsc2)c2ccc(OC)cc2CC1	> 100 µM	7.31 µM
COC(=O)[C@@H]1C[C@@]23CCCN4CC[C@@]5(c6cccc(OC)c6N(C=O)[C@]15CC2)[C@@H]43	> 100 µM	–
CC(/C=N/N(C)C1=NCCCN1)=N/N(C)C1=NCCCN1	> 100 µM	–
COc1cc(CN[C@H]2CCc3cc(OC)c(OC)c(OC)c3-c3ccc(SC)c(=O)cc32)cc(OC)c1	> 100 µM	< 0.01 µM
CC(CCOc1c2ccoc2cc2oc(=O)ccc12)C1=CC(=O)C(C)(C)O1 (stereo not drawn)	> 100 µM	–
C=CCC1OC(=O)CCNC(=O)[C@H](C)N(C)C(=O)[C@H](C(C)C)N(C)C(=O)[C@H](C(C)CC)NC(=O)[C@@H]2CCCN2C1=O (stereo partly drawn) (HELM PEPTIDE1{[CCC(C)[C@H](N[*:1])C(=O)[*:2]].[meV].[meA].[bAla].[C=CCC(O[*:1])C(=O)[*:2]].P}$PEPTIDE1,PEPTIDE1,1:R1-6:R2$$$V2.0)	> 100 µM	–
COc1ccc(-c2cn3c(nc4ccccc43)c(/C=C/c3cccs3)n2)cc1	> 100 µM	–
CN(C)c1nc(=Nc2ccc3c(c2)OCO3)ss1	> 100 µM	–
CCn1c2ccccc2c2cc(/C=C(/C#N)C(N)=S)ccc21	> 82.4 µM	24.5 µM
c1cc(-c2ccc(-c3ccc(-c4ccc(-c5cccc6nsnc56)[nH]4)c4nsnc34)[nH]2)c2nsnc2c1	> 100 µM	–
CCCCCOc1ccc(C=Nc2ccc(-c3ccc(N=Cc4ccc(OCCCCC)cc4)c(OC)c3)cc2OC)cc1	> 100 µM	–
Nc1ccccc1C#C/C=C\C#Cc1cnccn1	49.2 µM	15 µM
COc1ccc(N2C(=O)C3c4[nH]c5ccccc5c4C4CCC(c5ccccc5)CC4C3C2=O)cc1 (stereo not drawn)	> 100 µM	–
N#C/C(=C\c1cn(Cc2ccccc2)c2ccccc12)C(=O)Nc1ncc(Cc2ccccc2Cl)s1	> 100 µM	2.74 µM
CCCCC(=O)OC[n+]1cccc(-c2c(COC(=O)NC(C)C)c(COC(=O)NC(C)C)c3n2CCC3)c1	> 100 µM	–
O=C(NC(=S)Nc1ccccn1)c1ccccc1	> 100 µM	> 100 µM
COC(=O)C1C(O)C(C)C(=O)C(C)/C=C\C=C(C)C(=O)Nc2c(C)c(OC(C)=O)c3c(c2O)C(=O)C(C)=C2OCOC(=C23)C(C)=CC(C)(O)C(O)C(C)C1O (stereo not drawn)	> 100 µM	–
N#CC[C@@H](O)COc1ccccc1	> 100 µM	–
COc1cc(C)c2c(c1C=O)Oc1c(c(C)c(O)c3c1C(O)OC3=O)OC2=O (stereo not drawn)	> 100 µM	–

SMILES	TGI	GI50
COc1ccc(-c2c(-c3cc(OC)c(OC)c(OC)c3)nc3sc(C4CC4)nn23)cc1OC	> 100 µM	13.5 µM
COC(=O)Cc1cccc2c1CCC2=O	> 100 µM	–
C[n+]1cn(C2=C([O-])c3ccccc3C(=O)/C2=N\S(=O)(=O)c2ccccc2)c2ccccc21	> 100 µM	–
O=[N+]([O-])c1ccc(C(Br)c2ccc([N+](=O)[O-])cc2)cc1	29.3 µM	14.8 µM
COC(=O)CCC1=NOC(CC2CC(CCC(=O)OC)=NO2)C1 (stereo not drawn)	> 100 µM	–
O=C1O[C@@H](c2ccccc2)C[C@H]1CN1CCOCC1	> 100 µM	–
C=CCn1c(SCC(=O)Nc2ccc(C(=O)/C=C/c3cc(OC)c(OC)c(OC)c3)cc2)nnc1-c1ccc(Cl)cc1	71.2 µM	4.89 µM
CN(NC(=O)/C(=C/c1ccc(Cl)cc1)NC(=O)c1ccccc1)c1cn[nH]c(=O)c1Cl	> 100 µM	–
COc1cc(/C=C/C(=O)Oc2ccc(NC(C)=O)cc2)ccc1C(=O)OCc1ccccc1	> 100 µM	–
COC(=O)C1=C(OC(=O)c2ccccc2)C(C(=O)OC)[C@]2(O)[C@@H](C(=O)OC)C1CC(c1ccccc1OC)[C@@H]2C(=O)OC (stereo partly drawn)	> 100 µM	24.4 µM
COc1ccc(/C=C/c2nsc(/C=C/c3ccc(OC)cc3)n2)cc1	> 100 µM	–
CCc1c(-c2ccc(OC)cc2)c(=O)oc2cc(O)ccc12	> 100 µM	–
CN1CCCC1c1cccnc1.O=C(O)c1ccccc1O.O=C([O-])c1ccccc1[OH2+].O=C([O-])c1ccccc1[OH2+].O=C([O-])c1ccccc1[OH2+].[Cu+2] (stereo not drawn)	> 100 µM	57.6 µM
Oc1ccc(-c2nc3ccc4ccccc4c3c3c2CCCC3)c(O)c1	> 100 µM	–
CCOC(=O)NC(=O)c1cn(CCCOC(=O)CCCCCCCCC(=O)OCCCn2cc(C(=O)NC(=O)OCC)c(=O)n(C)c2=O)c(=O)n(C)c1=O	> 100 µM	–
Nc1nc2[nH]c(=O)cnc2c(=O)[nH]1	> 125 µM	–
CCN(CC)CCn1ncc2c3c(=O)c4cccnc4n(CCN(CC)CC)c3ccc21	> 10 µM	–
O=C1C=CC(=O)c2c1ccc1c3ccccc3n(CCCCCCCCn3c4ccccc4c4ccc5c(c43)C(=O)C=CC5=O)c21	> 100 µM	–
C[CH2][Sn]([CH2]C)([O]C(=O)c1cccc(OC)c1)[O][Sn]([CH2]C)([CH2]C)[O]C(=O)c1cccc(OC)c1	> 100 µM	> 72.1 µM
Cc1c(NC(=O)/C(=N/NC(=S)N=N)C2C(=O)CC(C)(C)CC2=O)c(O)c2ccccc2c1O	54.1 µM	–
COc1nc(NC2OC(COC(C)=O)C(OC(C)=O)C(OC(C)=O)C2OC(C)=O)c2c(OC(C)=O)c(C)c(=O)oc2n1 (stereo not drawn)	> 100 µM	–
